# Measured values from the supplement of paper PMC8728848.
# The list shows a part of the results.
# Legend:
# Experiment in all cases: glycan array binding signal (z-score within array); higher = stronger binding
# Conditions in all cases: glycan notation: IUPAC condensed, linker removed
# [1] = molecular target: Man(a1-3)[Man(a1-6)]Man(a1-6)[Man(a1-2)Man(a1-3)]Man(b1-4)GlcNAc(b1-4)GlcNAc
# How it was run: (§1)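 Glycan array data were curated from 3228 arrays in the Consortium for Functional Glycomics database and kept only where the protein sequence was available. Glycan names were converted to IUPAC-condensed notation, and columns mapping to the same glycan were averaged. The binding signal is a within-array Z-score, averaged across arrays of the same protein sequence at different concentrations or buffers and across linkers. Negative Z-scores can be read as non-binding.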
# [2] = molecular target: Man(a1-3)[Man(a1-6)]Man(a1-6)[Man(a1-3)]Man
# How it was run: as §1
# [3] = molecular target: Man(a1-3)[Man(a1-6)]Man(a1-6)[Man(a1-3)]Man(b1-4)GlcNAc(b1-4)GlcNAc
# How it was run: as §1
# [4] = molecular target: Man(a1-3)[Man(a1-6)]Man(b1-4)GlcNAc(b1-4)GlcNAc
# How it was run: as §1
# [5] = molecular target: Man(a1-3)[Man(a1-6)]Man(b1-4)GlcNAc(b1-4)[Fuc(a1-6)]GlcNAc
# How it was run: as §1
# [6] = molecular target: Man(a1-6)Man
# How it was run: as §1
# [7] = molecular target: Man(b1-4)GlcNAc
# How it was run: as §1
# [8] = molecular target: MurNAc(b1-4)GlcNAc
# How it was run: as §1
# [9] = molecular target: Neu5Ac(a2-3)Gal
# How it was run: as §1
# [10] = molecular target: Neu5Ac(a2-3)Gal(b1-3)GalNAc
# How it was run: as §1
# [11] = molecular target: Neu5Ac(a2-3)Gal(b1-3)GalNAc(b1-3)Gal(a1-4)Gal(b1-4)Glc
# How it was run: as §1
# [12] = molecular target: Neu5Ac(a2-3)Gal(b1-3)GalNAc(b1-4)Gal(b1-4)Glc
# How it was run: as §1
# [13] = molecular target: Neu5Ac(a2-3)Gal(b1-3)GalNAc(b1-4)[Neu5Ac(a2-3)]Gal(b1-4)Glc
# How it was run: as §1
# [14] = molecular target: Neu5Ac(a2-3)Gal(b1-3)GalNAc(b1-4)[Neu5Ac(a2-8)Neu5Ac(a2-3)]Gal(b1-4)Glc
# How it was run: as §1
# [15] = molecular target: Neu5Ac(a2-3)Gal(b1-3)GalNAc6S
# How it was run: as §1
# [16] = molecular target: Neu5Ac(a2-3)Gal(b1-3)GlcNAc
# How it was run: as §1
# [17] = molecular target: Neu5Ac(a2-3)Gal(b1-3)GlcNAc(b1-2)Man
# How it was run: as §1
# [18] = molecular target: Neu5Ac(a2-3)Gal(b1-3)GlcNAc(b1-2)Man(a1-3)[GlcNAc(b1-4)][Neu5Ac(a2-3)Gal(b1-3)GlcNAc(b1-2)Man(a1-6)]Man(b1-4)GlcNAc(b1-4)GlcNAc
# How it was run: as §1
# [19] = molecular target: Neu5Ac(a2-3)Gal(b1-3)GlcNAc(b1-2)Man(a1-3)[Neu5Ac(a2-3)Gal(b1-3)GlcNAc(b1-2)Man(a1-6)]Man(b1-4)GlcNAc(b1-4)GlcNAc
# How it was run: as §1
# [20] = molecular target: Neu5Ac(a2-3)Gal(b1-3)GlcNAc(b1-2)[Neu5Ac(a2-3)Gal(b1-3)GlcNAc(b1-4)]Man(a1-6)[Neu5Ac(a2-3)Gal(b1-3)GlcNAc(b1-2)Man(a1-3)]Man(b1-4)GlcNAc(b1-4)GlcNAc
# How it was run: as §1
# [21] = molecular target: Neu5Ac(a2-3)Gal(b1-3)GlcNAc(b1-3)Gal(b1-3)GlcNAc
# How it was run: as §1
# [22] = molecular target: Neu5Ac(a2-3)Gal(b1-3)GlcNAc(b1-3)Gal(b1-4)GlcNAc
# How it was run: as §1
# [23] = molecular target: Neu5Ac(a2-3)Gal(b1-3)GlcNAc(b1-3)GalNAc
# How it was run: as §1
binder,measurement,setting,value
"InvD YPIII (Yersinia pseudotuberculosis), B1JSC0 (protein) MIKYFSFFKKPEPIVGILPNRQSHHILPTHIRRVAWGTLLLQLFIPLSVSFSPAIAAMKASKADTMVSYSSTEPYVLGSGETVAMVAKKYGITVDELKKINIYRTFSRPFTALTTGDEIDIPRKASPFSVDNNKDNRLSVENTLAGHAVAGATALSNGDVAKSGERMVRSAASNEFNNSAQQWLSQFGTARVQLNINDDFHLDGSAADVLIPLYDNEKSILFTQLGARNKDSRNTVNMGAGVRTFQGNWMYGANTFFDNDLTGKNRRIGVGAEAWTDYLKLSANNYFGITDWHQSRDFIDYNERPANGYDLRAEAYLPSYPQLGGKAMYEKYRGDDVALFGKDNRQKNPHAITAGVNYTPIPLVTIGAEHRAGKGGQNDSNINFQLNYRLGETWQSHIDPSAVAASRTLAGSRYDLVERNNHIVLDYQKQNLVRLSLPDSLAGDPFSQLSVTAQVTATHGLERIDWQSAELMAAGGVLKQTSKNGLEITLPEYQMNRTGGNSYILNAIAYDTQGNASSQASMLITVNAQKINIANSTLVAVPINIEANNSDTSVVTLTLKDDNNIPVTGQDVTFLSPLGTLSAMTDSGNGVYTATLTAGTVSGTTAVSSNINGSALDMTPATVTLNGNSGELSITHSMLVAAPVNIEANGSDTSVVTLTLRDSNNNPVTGQTVTFAGTLGTLGAVTEGSSGVYTATLTAGIMVGTSSITASVNSTALGVTPATVTLNGDSGNLSTTNSTLVAAPVNIEANSSDTSVVTLTLRDNNNNPVTGQTVVFTSTLGTLGNVTEQASGVYTATLTAGTVSGVASLSVSVGGNALGVTPATVTLNGDSGNLSTTNSTLVAAPVNIEANSSDTSVVTLTLRDNNNNPVTGQTVNFAGTLGTLGTVSEGSSGVYTTTLTAGTVAGVASLSVNVGGNALGVTPATVTLNGNSGNLSATNSTLVAAPVNIEANSSDTSVVTLTLRDNNNNPVTGQTVAFTSTLGTLGNVTEQASGVYTATLTAGTVSGVASLSVSVNSNALGVTPATVTLNGDSGNLSTTNSTLVAAPVNIEANSSDTSVVTLTLRDNNNNPVTGQTVAFTSTLGTLGNVTEQASGLYTATLTAGTVSGVASLSVNVGGNALGVTPATVTLNGDSGNLSATNSTLVAAPVNIEANSSDTSVVTLTLRDNNNNPVTGQTVAFTSTLGTLGNVTEQASGLYTATLTAGTVSGVASLSVNVGGTALGVTPATVTLNGDSGNLSTTNSTLVAAPVNIEANSSDTSVVTLTLRDNNNNPVTGQTVAFTSTLGTLGNVTEQASGLYTATLTAGTVSGVASLSVSVNSTALGVTPATVTLNGDSGNLSTTNSTLVAAPVNIEANSSDTSVVTLTLRDNNNNPVTGQTVAFTSTLGTLGNVTEQASGVYTATLTAGTVAGVASLSVNVGGNALGVTPATVTLNGDSGNLSTTNSTLVAAPVNIEANSSDTSVVTLTLRDNNNNPVTGQTVAFTSTLGTLGNVTEQASGVYTATLTAGTVSGVASLSVSVGSSALGVTPATVTLNGDSGNLSTTNSTLVAAPVNIEANNSDTSVVTLTLRDNNNNPVTGQTVAFTSTLGTLGNVTEQASGVYTATLTAGTVSGVASLSVSVNSNALGVTPATVTLNGDSGNLSTTNSTLVAAPVNIEANSSDTSVVTLTLRDNNNNPVTGQTVVFTSTLGTLGNVTEQASGLYTATLTAGTVSGVASLSVSVGGNALGVTGNITLAPGALDAARSILAVNKPSINADDRIGSTITFTAQDAQGNAITGLDIAFMTDLENSQIMTLVDHNDGTYTANINGTQTGIANIAVQSSGATIAGLAATMVTITPGAWNTTQATPVMTVALPITTCQSSSGVYKRYYIGIVTHELYDNYGNEISGILTYNLGAGRYTTVTSQNSSVSGSNGLTRRSNSPVSHFILTSDAYTSQAACYAERIANVNVTITVTAITDDFKTSAVNKVFILGTGSN",glycan array binding signal (z-score),[1],-0.333
same,glycan array binding signal (z-score),[2],-0.071
same,glycan array binding signal (z-score),[3],-0.223
same,glycan array binding signal (z-score),[4],-0.311
same,glycan array binding signal (z-score),[5],-0.056
same,glycan array binding signal (z-score),[6],0.423
same,glycan array binding signal (z-score),[7],-0.245
same,glycan array binding signal (z-score),[8],-0.127
same,glycan array binding signal (z-score),[9],-0.29
same,glycan array binding signal (z-score),[10],0.015
same,glycan array binding signal (z-score),[11],-0.117
same,glycan array binding signal (z-score),[12],-0.278
same,glycan array binding signal (z-score),[13],-0.22
same,glycan array binding signal (z-score),[14],-0.165
same,glycan array binding signal (z-score),[15],-0.069
same,glycan array binding signal (z-score),[16],-0.282
same,glycan array binding signal (z-score),[17],-0.238
same,glycan array binding signal (z-score),[18],-0.366
same,glycan array binding signal (z-score),[19],0.412
same,glycan array binding signal (z-score),[20],-0.409
same,glycan array binding signal (z-score),[21],-0.308
same,glycan array binding signal (z-score),[22],-0.309
same,glycan array binding signal (z-score),[23],-0.083
